Assay results: PubChem BioAssay AID720709 (National Center for Advancing Translational Sciences (NCATS), 2013)
Screen size: about 360,000 compounds; about 520 (0.14%) were called active. The shares of active, inactive and inconclusive entries below differ from those in the screen. Calls follow the shape of the dose curve; as a rule, active = well fitted inhibition curve with a large enough effect; inconclusive = small, poorly fitted or top-dose-only effect; inactive = no such curve, though single readings can be large or run the other way. No potency is given beside an inconclusive call; the fits are too rough.

Each compound was assayed against Rap guanine nucleotide exchange factor 3 (Homo sapiens) (UniProt O95398) (assay: qHTS for Antagonist of cAMP-regulated guanine nucleotide exchange factor 3 (EPAC1): primary screen). Settings: EPAC1 GEF assay, Rap1b-BODIPY-GDP exchange fluorescence; activity change, negative = inhibition: at 115 µM (top of the series).
Also: nearly all actives have a fitted effect of over 50% in size.
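For activity change, negative = inhibition in this document: plate controls were vehicle for no effect and positive control for full effect.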
Potency is read from the fitted curve at half-maximal effect; tags tell the direction and shape of the fitted curve.

Sequence of UniProt O95398 (O95398 whole entry, looked up): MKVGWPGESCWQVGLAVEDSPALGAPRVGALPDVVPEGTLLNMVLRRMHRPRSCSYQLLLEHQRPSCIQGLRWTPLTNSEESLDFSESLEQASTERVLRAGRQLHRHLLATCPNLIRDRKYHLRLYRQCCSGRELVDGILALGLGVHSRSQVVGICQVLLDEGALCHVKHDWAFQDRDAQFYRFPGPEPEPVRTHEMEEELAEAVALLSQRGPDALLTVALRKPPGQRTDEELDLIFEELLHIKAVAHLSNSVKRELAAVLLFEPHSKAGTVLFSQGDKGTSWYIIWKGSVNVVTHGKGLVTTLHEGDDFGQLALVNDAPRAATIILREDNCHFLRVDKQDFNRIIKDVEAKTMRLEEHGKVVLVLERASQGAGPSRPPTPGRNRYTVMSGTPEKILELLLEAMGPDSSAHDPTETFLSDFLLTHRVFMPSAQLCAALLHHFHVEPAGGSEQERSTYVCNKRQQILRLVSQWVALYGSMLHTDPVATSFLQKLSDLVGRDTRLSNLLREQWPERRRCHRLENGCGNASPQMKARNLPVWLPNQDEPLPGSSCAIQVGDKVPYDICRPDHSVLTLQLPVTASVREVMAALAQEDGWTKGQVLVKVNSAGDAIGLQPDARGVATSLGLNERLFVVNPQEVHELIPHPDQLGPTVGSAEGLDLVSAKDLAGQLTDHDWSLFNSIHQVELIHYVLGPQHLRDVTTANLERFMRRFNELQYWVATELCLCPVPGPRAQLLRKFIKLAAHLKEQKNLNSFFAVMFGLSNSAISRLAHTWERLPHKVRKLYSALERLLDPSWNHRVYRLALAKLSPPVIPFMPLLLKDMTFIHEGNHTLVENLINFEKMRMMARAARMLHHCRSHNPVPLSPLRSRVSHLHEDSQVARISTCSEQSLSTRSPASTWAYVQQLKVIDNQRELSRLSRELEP

Question: Which Potency does the source give for `CCOC(=O)C1=C(C)OC(N)=C(C#N)C1c1cncc(-c2ccc(F)cc2)c1` (configuration not stated) here?
Answer: inconclusive [inhibitor, full curve, poor fit]

Question: With `Cc1ccc(NC(=O)CCC(=O)N2CCN(S(=O)(=O)c3ccc(C)cc3)CC2)cc1` as the compound, how does the Potency read?
Answer: inconclusive [inhibitor, full curve, poor fit]

Question: For `CCC1Cc2c(nc(N)c3c(N)nc(N4CCOCC4)c(C#N)c23)O1` (configuration not stated), which Potency is on record?
Answer: inconclusive [inhibitor, full curve, poor fit]

Question: For `COc1ccc2c(=O)c(-c3ccc(OC)c(OC)c3)coc2c1`, which Potency is on record?
Answer: inactive

Question: `O=C(N/N=C/c1ccc([N+](=O)[O-])o1)c1cn(-c2ccccc2)nc1-c1ccc(Cl)cc1` was tested. Which Potency did it give?
Answer: inactive

Question: For `CC1(C)CC(CCNS(=O)(=O)c2ccccc2)(c2ccccc2)CCO1` (configuration not stated), which Potency is on record?
Answer: inconclusive [inhibitor, single point]

Question: For `CC(=O)c1cccc(NC(=O)N2CCCC2C(=O)NC2CCCC2)c1` (configuration not stated), which Potency is on record?
Answer: inactive

Question: How did the Potency turn out when `CC1=NOC(=O)/C1=C/c1ccc(O)cc1` was run?
Answer: inactive

Question: For `COc1cccc(C2C(C(=O)c3cc4ccccc4o3)=C(O)C(=O)N2c2cc(C)on2)c1OC` (configuration not stated), which Potency is on record?
Answer: inactive

Question: For `O=C1NC(CCc2ccccc2)C(=O)N1CCOc1cccc(Br)c1` (configuration not stated), which Potency is on record?
Answer: inconclusive [inhibitor, full curve, poor fit]

Question: With `CCN1CCN(CCOc2ccccc2-c2ccccc2)CC1` as the compound, how does the Potency read?
Answer: inconclusive [inhibitor, full curve, poor fit]

Question: With `O=C1Nc2ccccc2/C1=N\N=C\c1ccc(O)c(O)c1` as the compound, how does the Potency read?
Answer: active: 39.8 µM

Question: `COC(C)(C)c1cc(C(C)(C)C)nc(N)n1` was tested. Which Potency did it give?
Answer: inconclusive [inhibitor, full curve, poor fit]

Question: With `CCC1CCCCN1S(=O)(=O)c1ccc(C(=O)Nc2nnc(-c3cccs3)o2)cc1` (configuration not stated) as the compound, how does the activity change, negative = inhibition read?
Answer: inconclusive: -18.3% [inhibitor]

Question: `CSc1oc(-c2ccco2)nc1S(=O)(=O)c1ccccc1` was tested. Which Potency did it give?
Answer: inactive

Question: For `NC1=CC(=O)C(=O)c2cccnc21`, which Potency is on record?
Answer: active: 56.2 µM

Question: How did the Potency turn out when `CCCCOc1c(Br)cc(/C=N/O)cc1OCC` was run?
Answer: inconclusive [inhibitor, partial curve, poor fit]

Question: Which Potency does the source give for `COc1ccccc1/C=N/NC(=O)c1c(-c2ccccc2)noc1C` here?
Answer: inactive

Question: How did the Potency turn out when `COc1cccc2c1C(=O)c1c(O)c3c(c(O)c1C2=O)CC(O)(C(C)=O)CC3OC1CC(N(C)C)C(O)C(C)O1` (configuration not stated) was run?
Answer: inactive

Question: With `CC1CCCCC1NC(=O)c1ccc(S(=O)(=O)NNC(=O)c2ccncc2)cc1` (configuration not stated) as the compound, how does the Potency read?
Answer: inconclusive [inhibitor, single point]

Question: `O=C1NC[C@@H](Cc2cccc3ccccc23)N(CCc2cc(C(F)(F)F)cc(C(F)(F)F)c2)C1=O` was tested. Which activity change, negative = inhibition did it give?
Answer: inconclusive: -30.3% [inhibitor]

Question: `N#Cc1cc(-c2ccccc2)nc(NN)n1` was tested. Which Potency did it give?
Answer: inconclusive [inhibitor, partial curve]

Question: Which Potency does the source give for `CC(C)c1ccc(C2NC(=O)NC3=C2CCc2ccccc23)cc1` (configuration not stated) here?
Answer: inactive

Question: `CCc1ccc(C(=O)/C=C/c2ccc([N+](=O)[O-])o2)cc1` was tested. Which Potency did it give?
Answer: inconclusive [inhibitor, single point]

Question: With `CC1CCC(C(C)C)C(OCC(O)CN2CCN(Cc3ccccc3)CC2)C1` (configuration not stated) as the compound, how does the Potency read?
Answer: inconclusive [inhibitor, full curve]

Question: `CN(Cc1ccco1)C(=O)Cn1nc(-c2ccc(Cl)cc2)ccc1=O` was tested. Which Potency did it give?
Answer: inconclusive [inhibitor, single point]

Question: Which Potency does the source give for `COc1cccc(CSc2nnnn2-c2ccc(O)cc2)c1` here?
Answer: inconclusive [inhibitor, single point]

Question: How did the Potency turn out when `O=C(Nc1cccc(Cl)c1N1CCCCC1)c1ccc(N2CCOCC2)c([N+](=O)[O-])c1` was run?
Answer: inconclusive [inhibitor, full curve, poor fit]

Question: With `CC(=O)N1CCOc2ccc(S(=O)(=O)NCC3CCC(C(=O)Nc4ccc(C)cn4)CC3)cc21` (configuration not stated) as the compound, how does the Potency read?
Answer: inconclusive [inhibitor, single point]

Question: Which Potency does the source give for `CCN1CCN(c2ccc(S(=O)(=O)N3CCOCC3)cc2NC(=O)c2sccc2C)CC1` here?
Answer: inconclusive [inhibitor, single point]

Question: `CN(C)NC(=S)NC1CC2CCC1C2` (configuration not stated) was tested. Which Potency did it give?
Answer: inconclusive [inhibitor, single point]

Question: For `CCN(CC)c1ncnc2c1ncn2[C@H]1CN(Cc2ccccc2)C[C@@H](COC(C)=O)O1`, which activity change, negative = inhibition is on record?
Answer: inconclusive: -18.2% [inhibitor]

Question: With `COC(=O)c1ccccc1NC(=O)CCC(=O)N1CCSc2ccccc21` as the compound, how does the Potency read?
Answer: inconclusive [inhibitor, single point]

Question: How did the Potency turn out when `COc1ccc(Oc2cnc3ccccc3n2)cc1` was run?
Answer: inactive

Question: How did the Potency turn out when `COc1cccc(CNC(=O)N2CCN(c3ccccc3C)CC2)c1` was run?
Answer: inconclusive [inhibitor, single point]

Question: How did the Potency turn out when `CCC/C=N/Nc1nc2ccccc2s1` was run?
Answer: inactive

Question: For `CN(C)c1ccc2nc3c(=O)[nH]c(=O)nc-3n(CC(O)C(O)C(O)CO)c2c1` (configuration not stated), which Potency is on record?
Answer: inconclusive [inhibitor, partial curve]

Question: How did the Potency turn out when `CCOC(=O)C1=C(C)Nc2ccccc2N=C1NC(=O)Cc1ccc(Cl)c(Cl)c1` was run?
Answer: inconclusive [inhibitor, single point]

Question: `c1ccc(CNc2nc(NCCc3ccncc3)c3sccc3n2)cc1` was tested. Which Potency did it give?
Answer: inactive

Question: For `O=C(OCCc1ccccc1)c1cc(O)c(O)c(O)c1`, which Potency is on record?
Answer: inactive

Question: Which Potency does the source give for `Cc1nc(SC(C)C(=O)Nc2cccc(C(F)(F)F)c2)c2c(C)c(C(=O)O)sc2n1` (configuration not stated) here?
Answer: inconclusive [inhibitor, single point]

Question: With `COc1ccc(C(C)NC(=O)Nc2ccc(C(C)=O)cc2)cc1OC` (configuration not stated) as the compound, how does the Potency read?
Answer: inactive

Question: For `COc1cccc(OC)c1C(=O)OCC(=O)Nc1ccc(OC(F)(F)F)cc1`, which Potency is on record?
Answer: inconclusive [inhibitor, single point]

Question: Which Potency does the source give for `CCOc1ccc(OCc2ccc(C(=O)N3CCCCC3)o2)cc1` here?
Answer: inconclusive [inhibitor, single point]

Question: `O=C(NCc1ccc(F)cc1F)[C@@H]1CCCN1C(=O)[C@@H]1CCCN1C(=O)c1cccs1` was tested. Which Potency did it give?
Answer: inactive

Question: `Cc1ccc(OCCCC(=O)Nc2nc3ccccc3[nH]2)cc1` was tested. Which Potency did it give?
Answer: inactive

Question: `CC(C)c1cccc(OCCN2CCCC2)c1` was tested. Which Potency did it give?
Answer: inactive

Question: `O=C(Cn1cnc2c(nnn2Cc2ccccc2)c1=O)N1CCN(c2ccccc2)CC1` was tested. Which Potency did it give?
Answer: inconclusive [inhibitor, single point]

Question: For `CC(=O)Nc1ccc(-c2cc3ccccc3o2)cc1`, which Potency is on record?
Answer: inconclusive [inhibitor, partial curve, poor fit]

Question: Which Potency does the source give for `Cc1cccc(C)c1NC(=O)C1C(c2ccc3c(c2)OCO3)=Nc2ccccc2N1C(=O)c1cccc2ccccc12` (configuration not stated) here?
Answer: inactive

Question: For `CC(C)(C)c1cc[n+](C2=C([O-])c3ccccc3C(=O)/C2=N\S(=O)(=O)c2cccs2)cc1`, which Potency is on record?
Answer: inactive

Question: For `CSc1nc(N2CCN(Cc3ccc4c(c3)OCO4)CC2)c2ccccc2n1`, which Potency is on record?
Answer: inactive

Question: With `Cc1c(C(=O)OCCOC(C)C)[nH]c2c1C(=O)CC(c1ccco1)C2` (configuration not stated) as the compound, how does the Potency read?
Answer: inconclusive [inhibitor, partial curve]

Question: Which Potency does the source give for `O=C(CSc1nnc(-c2ccco2)c(-c2ccco2)n1)c1ccccc1` here?
Answer: inconclusive [inhibitor, partial curve]

Question: `N/C(=N\OC(=O)N1c2ccccc2Sc2ccccc21)c1ccc(Br)cc1` was tested. Which Potency did it give?
Answer: inconclusive [inhibitor, partial curve, poor fit]

Question: Which Potency does the source give for `COc1ccc(N2CCCn3c2nc2c3c(=O)n(CCN3CCOCC3)c(=O)n2C)cc1` here?
Answer: inactive

Question: Which Potency does the source give for `COc1cccc(/C=C/C(=O)Oc2ccc(C(=O)c3ccc(F)cc3)cc2)c1` here?
Answer: inactive

Question: For `CC(=O)c1ccc(-c2c(CCO)sc3ccccc23)cc1`, which Potency is on record?
Answer: inactive

Question: How did the Potency turn out when `COc1cc(C)ccc1S(=O)(=O)NC(=O)C1(C)CCN1C(=O)c1ccc(C(F)(F)F)nc1C` (configuration not stated) was run?
Answer: inactive

Question: How did the Potency turn out when `COc1ncccc1-c1cc2nc(NCCCN(C)C)n(C)c(=O)c2s1` was run?
Answer: inactive

Question: With `CN(CCCC(=O)O)c1ccc(N=Nc2ccc([N+](=O)[O-])cc2)cc1` as the compound, how does the Potency read?
Answer: inconclusive [inhibitor, partial curve]

Question: For `CN(C)c1ncc(C2=C(Cl)C(=O)C(N3CCCC3)=C(Cl)C2=O)s1`, which Potency is on record?
Answer: inconclusive [inhibitor, single point]

Question: `COc1ccc(OC)c(NC(=O)C2CCN(S(=O)(=O)c3ccc4c(c3)CC(C)N4C(C)=O)CC2)c1` (configuration not stated) was tested. Which Potency did it give?
Answer: inconclusive [inhibitor, single point]

Question: Which Potency does the source give for `Cc1sc(N)c(C#N)c1C` here?
Answer: inactive

Question: `CN(C)c1nc(SCCOC(=O)c2ccccc2)nc(N(C)C)n1` was tested. Which Potency did it give?
Answer: inconclusive [inhibitor, partial curve, poor fit]

Question: With `Nc1nc(N)nc(-c2cc(F)ccc2O)n1` as the compound, how does the Potency read?
Answer: inconclusive [inhibitor, single point]

Question: For `O=C(Nc1ccc2c(c1)OCCO2)C(c1ccncc1)n1c(=O)c(-c2cc3ccccc3[nH]2)nc2ccccc21` (configuration not stated), which Potency is on record?
Answer: inactive

Question: `COc1ccc(Nc2ncnc3nc[nH]c23)cc1OC` was tested. Which Potency did it give?
Answer: inconclusive [inhibitor, single point]

Question: Which Potency does the source give for `O=C(NC1CCCc2ccccc21)c1cn2ccccc2n1` (configuration not stated) here?
Answer: inconclusive [inhibitor, single point]

Question: Which Potency does the source give for `CCN1CCc2c(sc(NC(=O)c3ccc(S(=O)(=O)N(CC)c4ccccc4)cc3)c2C(N)=O)C1` here?
Answer: inconclusive [inhibitor, single point]

Question: With `COc1ccc(OC)c(-n2c(SC)nnc2-c2c[nH]c3ccccc23)c1` as the compound, how does the Potency read?
Answer: inconclusive [inhibitor, single point]

Question: How did the Potency turn out when `COc1ccc(NS(=O)(=O)c2cccc(NC(=O)CCC(=O)c3ccc(Cl)cc3)c2)cc1` was run?
Answer: inconclusive [inhibitor, single point]
